# Measurements reported in the antibiotic and cytotoxicity screens of Wong et al. (2023).
# Some of the results follow.
# Experiments:
# [1] = test system: HSkMC (human skeletal muscle cells); assay: cytotoxicity call (relative viability < 0.9); conditions: 10 µM
# [2] = test system: HepG2; assay: cytotoxicity call (relative viability < 0.9); conditions: 10 µM
# [3] = test system: S. aureus RN4220; assay: growth inhibition call (relative growth <= 0.2); conditions: 50 µM
Compound,cytotoxicity call [1],cytotoxicity call [2],growth inhibition call [3]
C[C@H](CO)N1C[C@H](C)[C@H](CN(C)Cc2ccccn2)Oc2cc(C#CCN(C)C)ccc2S1(=O)=O,inactive,inactive,inactive
C[C@H]1CN([C@@H](C)CO)C(=O)Cc2cc(NC(=O)Nc3ccc(F)cc3)ccc2O[C@@H]1CN(C)Cc1ccc(Oc2ccccc2)cc1,inactive,active,inactive
C[C@@H]1CCCCO[C@H](CN(C)Cc2ccc(C(F)(F)F)cc2)[C@H](C)CN([C@H](C)CO)C(=O)c2cc(NS(=O)(=O)c3cccs3)ccc2O1,inactive,active,inactive
COc1ccc2c3c([nH]c2c1)[C@@H](CO)N(Cc1nccs1)C[C@]13CCN(CC1)C(=O)C1CCOCC1,inactive,inactive,inactive
C[C@H](CO)N1C[C@H](C)[C@@H](CN(C)S(=O)(=O)c2cn(C)cn2)Oc2c(NC(=O)NC3CCCCC3)cccc2C1=O,inactive,inactive,inactive
C[C@@H]1CN([C@H](C)CO)C(=O)c2cc(NC(=O)CCC(F)(F)F)ccc2O[C@@H](C)CCCCO[C@@H]1CN(C)Cc1ccc2c(c1)OCO2,inactive,inactive,inactive
C[C@@H]1CN([C@@H](C)CO)C(=O)c2cc(NS(=O)(=O)c3ccc(F)cc3)ccc2O[C@H]1CN(C)Cc1ccc(Cl)c(Cl)c1,active,inactive,inactive
COCC(=O)Nc1ccc2c(c1)C(=O)N(C)C[C@@H](OC)[C@@H](C)CN(Cc1ccccc1OC)[C@@H](C)CO2,inactive,inactive,inactive
COc1ccccc1C#Cc1cnc2c(c1)C(=O)N([C@@H](C)CO)C[C@H](C)[C@H](CN(C)C(=O)CN(C)C)O2,inactive,inactive,inactive
